In PubChem BioAssay AID1671194 (National Center for Advancing Translational Sciences (NCATS), 2021):
Hit rate of the full screen: of about 140,000 compounds, about 240 (0.17%) were called active. The inconclusive results got no clear call from the source; some entries with a clear call stand among them for comparison. The call rests on the fitted dose curve; in most records, active means well fitted inhibition curve with a large enough effect; inconclusive means small, poorly fitted or top-dose-only effect; inactive means no such curve, though single readings can be large or run the other way. Potencies beside an inconclusive call are fits to weak or partial responses and may not hold up.

Test: Primary qHTS assay for inhibitors of alpha-synuclein gene (SNCA) expression; further: nearly all actives have a fitted effect of over 45% in size
Details: HEK-293 SNCA-luciferase knock-in, luminescence, 24 h; series mostly up to 57.2 µM
Potency means the concentration at half of the fitted maximal effect; tags describe the fitted curve by direction and shape.

SMILES | Potency
CC(C)(C)c1ccc(C(=O)NC2(C(F)(F)F)NC(=O)N(CCc3ccccc3)C2=O)cc1 (stereo unspecified) | inconclusive: 25.1 µM [inhibitor, single point]
C[C@@H]1CC(=O)NN=C1c1ccc(NN=C(C#N)C#N)cc1 | inconclusive: 30.4 µM [inhibitor, single point]
CSc1cccc(NC(=O)C2CCCN(C(=O)c3cnn(-c4ccc(F)cc4)c3-n3cccc3)C2)c1 (stereo unspecified) | inconclusive: 20 µM [inhibitor, single point]
COc1ccc(S(=O)(=O)N(CC(=O)Nc2cc(C)ccc2OC)Cc2ccccc2)cc1 | inconclusive: 0.316 µM [inhibitor, full curve]
CCC1(N2CCN(S(=O)(=O)c3cccc(C#N)c3)CC2)CCN(C(=O)C(C)C)C1 (stereo unspecified) | inconclusive: 25.1 µM [inhibitor, single point]
O=C(NCc1ccc(F)cc1)c1nc(-c2ccc(Cl)cc2Cl)c2cnccn12 | inconclusive: 10 µM [inhibitor, partial curve, poor fit]
COc1ccc(C2=C(C)C(=O)N(Cc3ccc(C(=O)Nc4cccc(F)c4)cc3)S2(=O)=O)cc1 | inconclusive: 39.8 µM [inhibitor, single point]
CC1CCCN(c2nc3c(S(=O)(=O)c4ccc(C(C)C)cc4)nnn3c3ccsc23)C1 (stereo unspecified) | inconclusive: 4.47 µM [inhibitor, full curve, poor fit]
CN1CCN(c2ccc3ncc(Nc4ccccc4-c4ccccc4)n3n2)CC1 | inconclusive: 44.7 µM [inhibitor, single point]
Cc1cccc2nc(C(=O)N3CCC4(CC3)CC(c3ccccc3)CN(C)C4)cn12 (stereo unspecified) | inconclusive: 2.51 µM [inhibitor, partial curve, poor fit]
COc1ccc2[nH]c(C(=O)N3CCC4(CC3)CC(c3nc(C)no3)N(C)C4)cc2c1 (stereo unspecified) | inactive
CC1=C[C@@H](CNC(C)C)[C@H](C(C)C)C[C@H]1Cc1nnc(-c2ccncc2)o1 | inconclusive: 6.31 µM [inhibitor, single point]
CCCC1=Nc2cc(C(=O)NCCc3ccc(OCC)cc3)ccc2Sc2ccccc21 | inconclusive: 17.8 µM [inhibitor, single point]
Cc1ccc(C)c(C(=O)NCCn2ccn3nc(-c4cc(C)ccc4C)cc3c2=O)c1 | inconclusive: 1.41 µM [inhibitor, full curve, poor fit]
c1ccc2sc([C@H]3CCN(CC4CCCCC4)C3)nc2c1 | inactive
CC(=O)c1ccc(NC(=O)c2ccc3c(c2)nnn3C2CCCC2)cc1 | inactive
